The record followed here is publication PMC12136788.

Some of the results follow.

T1: UNK ZnF1-3 (human, UniProt Q9C0B0 31-174)
T1 sequence: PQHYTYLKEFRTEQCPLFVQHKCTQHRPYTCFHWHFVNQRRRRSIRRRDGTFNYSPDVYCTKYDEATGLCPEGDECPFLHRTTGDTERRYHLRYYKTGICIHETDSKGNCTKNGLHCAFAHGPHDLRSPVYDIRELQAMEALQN

B1: chr7:3571038:3571039:+_ENSMUSG00000035674_ENSMUST00000076657|mus_hu|FALSE|FALSE (ssRNA)
RNA: GGGAGUUCUACAGUCCGACGAUCGGGUAGUUGUAGGGCGUGGCCUUGUUGAUCAUGACGGAGUACUUGAAGUAGGGGCUCAAUGGGGGCAGAAUUACAGCGAGGCCCCCGACGACGAAGGACACGACCAGCACUGGCUCCUUGCAACAGAGGAUUGAGCAUCA
B2: chr1:21106938:21106939:-_ENSG00000127483_ENST00000312239|hu_mus|FALSE|FALSE (ssRNA)
RNA: GGGAGUUCUACAGUCCGACGAUCUGGGAGUGCCUUAGGAUGGAUGAGUUCACCUUGAGACAUAUCAGUUGCCAUUUAGAAUAAUGUCUAGGCCUGAGUUAUGGUGAAACUCUGAAGGCUCUGCUGAUAACCACAAGGUUUGUUCAACAGAGGAUUGAGCAUCA
B3: chrX:71549400:71549401:+_ENSMUSG00000019087_ENSMUST00000019231|mus_hu|mus_mus_mus_hu_False|38_48 (ssRNA)
RNA: GGGAGUUCUACAGUCCGACGAUCGCAGUAGGAAGAGGGAAGCUCUUCAGUCCAGUGCGCUGCAGGGUGGGAAAGCAACAACACGGAACCAAUACUCCCUCAAUUCCCCCCACUGGCACAGGGUCACACAAUCUGGGUCAAAGACAACAGAGGAUUGAGCAUCA
B4: chr5:71490253:71490254:+_ENSG00000131711_ENST00000296755|hu_hu|motif|central (ssRNA)
RNA: GGGAGUUCUACAGUCCGACGAUCCUUGAUGUUUGGCUCUGGAUUUUUGAGAUUUUCAGGUACAUUGAGAAAUACAACUCCGGAGUCAGGGGAGAUGAGGUUUUUCAUCCAGUCACUAUUUGUGGUGGAGCCCUGGGACUGUUCCAACAGAGGAUUGAGCAUCA
B5: chr6:114270206:114270207:-_ENSG00000196591_ENST00000368632|hu_hu|FALSE|FALSE (ssRNA)
RNA: GGGAGUUCUACAGUCCGACGAUCUACAACUUCUACACAUUUAGCAUGACCUUUGACUGUUAGAUUGAAACAACCCAGUCUAUCACCAGAUAAUGAGUCUGCACCACACUGUAAUACCACAGCACUAGGUUGAUACAUCUCCAUCAACAGAGGAUUGAGCAUCA
B6: chr14:62207481:62207482:+_ENSG00000100644_ENST00000337138|hu_mus|motif|central (ssRNA)
RNA: GGGAGUUCUACAGUCCGACGAUCGGAACGUAACUGGAAAUCAUCAUCCAUUGGGAUAUAGGGAGCCAGCAUCUCCAAAUCGGAAUCAGUGUCCUGAGUUGAAAAUGGAUUCUUUGCCUCUGUGUCUUCAGCAAACAGUUUUUCCAACAGAGGAUUGAGCAUCA
B7: 134836930_134837572_2942_CDS_ENSMUSG00000023079_ENSMUST00000100650|mouse|control|control (ssRNA)
RNA: GGGAGUUCUACAGUCCGACGAUCGAGGCCCUUCACCUCCACGGCAUCUGGGCUGUCCCGGAUCAGUUUGUAAGGGACCAGCACAGGCCGAUUCAGUCCCAGGGCCUCACCGUAUUUCUCAUUGAAGAGCUCCUUCACCUGCUCCAACAGAGGAUUGAGCAUCA
B8: chr12:13295503:13295504:+_ENSMUSG00000020576_ENSMUST00000042953|mus_mus|motif|central (ssRNA)
RNA: GGGAGUUCUACAGUCCGACGAUCUCCCCGGUAAUUGAUGACCAAGAGCUCUGCAGACCACUGUGCACUGGCUUUGUAUUCGGAAAAUACCAACCCAGCAAUGGCGUAGCUUAAGUCCCCAGCAAAGACAGAUGCCGGGGCAAUCAACAGAGGAUUGAGCAUCA
B9: 71845025_71845145_1816_CDS_ENSG00000119139_ENST00000377245|human|control|control (ssRNA)
RNA: GGGAGUUCUACAGUCCGACGAUCCAGAAUCUGGUCUCCUUCUUGAAGGCCCUCCUGCUCCGCCGAGGUCCCUUCUUGAAUGCCAGCAACAAAUAUCCCGACAUCAUUGCCACCAGCCAACCGGAGGCCCACGCUGUCUCCCUUCAACAGAGGAUUGAGCAUCA
B10: chr5:113341905:113341906:-_ENSMUSG00000042249_ENSMUST00000065167|mus_mus|motif|central (ssRNA)
RNA: GGGAGUUCUACAGUCCGACGAUCAUGGGAACUCUCAAACAGCCAUGUAUCAUAAACCCAUCUGGCUCCUCCUCCCACCCGGUGGAUCCAGGACACACCCUAGCCACAUGCCAGGGUGGAAAGAUGGCCUUUGAGAUGGCGCUACAACAGAGGAUUGAGCAUCA
B11: chr4:17845017:17845018:+_ENSG00000109805_ENST00000514176|hu_mus|hu_hu_hu_mus_False|18_18 (ssRNA)
RNA: GGGAGUUCUACAGUCCGACGAUCGCUCUCUUAACUUGUAUCUUCAUUAAGGAACUCUGCAAGGUUAAGUUUACUUUUCUGUAGCGCAGCUGUUUUGGCUCGUCUGGGUAAUCUCAUUUCAUUUCUGGAUGGUGGUUCAUGAUCCAACAGAGGAUUGAGCAUCA
B12: chr1:202702741:202702742:-_ENSG00000117139_ENST00000367264|hu_mus|FALSE|FALSE (ssRNA)
RNA: GGGAGUUCUACAGUCCGACGAUCUUCAGGAAGACGAACUCGUAUACGCUGUAGGGAGGCCAGCAGAGGCAGAAUUUUCUCUAAUGGAGGCUUCUCUGACCUCCGACAGUGAGGACAAAGCCAGAUUCGGGAGCUUUGUGAAAUCAACAGAGGAUUGAGCAUCA
B13: chr9:26842284:26842285:-_ENSG00000120159_ENST00000333916|hu_mus|motif|central (ssRNA)
RNA: GGGAGUUCUACAGUCCGACGAUCAUACAAAAUUAUAUGACAUGGCUUCAUUCAAACACACAUAAUAUUCAAGUCAGAAAACGGCACUGGCUUUUUUAUAUCACCAGCUUUCAUGAGAGCCUUAAUUGCUCUUGCCCUCAUUUCCAACAGAGGAUUGAGCAUCA
B14: chr2:20138125:20138126:-_ENSG00000118965_ENST00000281405|hu_mus|FALSE|FALSE (ssRNA)
RNA: GGGAGUUCUACAGUCCGACGAUCUUCAAUUCCAACUUUCUCAAUCAAUGCUCGGCUGUCUCGCAGGGACCGGAUCUCAAAGUUCAUUAUGUAAUCCUUGCUAGGGUGCUCUGGGUCCUUCAGUAUCUCAUCCAAGAGAACAGACAACAGAGGAUUGAGCAUCA

The assay addresses T1, UNK ZnF1-3. Kind of assay: nsRBNS (natural sequence RNA bind-n-seq); RBNS binding buffer (assumed for nsRBNS): 25 mM Tris pH 7.5, 150 mM KCl, 3 mM MgCl2, 0.01% Triton X-100, 500 ug/ml BSA, 20 U/ml SUPERase-In, 4 C; UNK is unkempt and MSI1 is Musashi-1; names of the RNAs are library labels; protein concentration not given here; high values mean tight binding.
Turning to B1, the binding signal stood at 1.24 enrichment R.

In turn, B2 came in with a binding signal of 0.501 enrichment R. For B3 the value was 1.57 enrichment R; for B4, 0.663 enrichment R.

B5 had a binding signal of 1.05 enrichment R. In the case of B6, the binding signal was determined as 1.13 enrichment R.

On to B7, for which the binding signal turned out to be 0.383 enrichment R. B8 returned a binding signal of 0.841 enrichment R. For B9, the binding signal was 0.825 enrichment R. Consider B10, for which the binding signal worked out at 0.192 enrichment R. For the molecule B11, the binding signal turned out to be 0.47 enrichment R. On to B12, for which the binding signal was found to be 1.11 enrichment R.

In turn, B13 showed a binding signal of 0.849 enrichment R. Take B14: the binding signal was 0.695 enrichment R.
